Assay [1] deals with HSkMC (human skeletal muscle cells). Description: cytotoxicity call (relative viability < 0.9). Conditions: 10 µM.
Assay [2] deals with HepG2. Description: cytotoxicity call (relative viability < 0.9). Particulars: 10 µM.
Assay [3] relates to S. aureus RN4220. Description: growth inhibition call (relative growth <= 0.2). Conditions: 50 µM.

SMILES strings stand for the structures. The list shows a part of the results.

From the antibiotic and cytotoxicity screens of Wong et al. (2023) come the findings set out here.

With `C[C@@H]1CN([C@H](C)CO)C(=O)c2c(c3ccccc3n2C)-c2ccccc2CO[C@@H]1CN(C)C(=O)Nc1ccc2c(c1)OCO2`, the cytotoxicity call in assay [1] and in assay [2] was “inactive” throughout. In assay [3], the growth inhibition call is “inactive”.

Consider `COc1ccc(NC(=O)Nc2ccc3c(c2)CC(=O)N([C@H](C)CO)C[C@@H](C)[C@@H](CN(C)C(=O)Nc2ccc(C(F)(F)F)cc2)O3)cc1`, for which the cytotoxicity call in assay [1] and in assay [2] was “inactive” each time. Also, the growth inhibition call in assay [3] is “inactive”.

In the case of `COc1ccc(S(=O)(=O)Nc2ccc3c(c2)C(=O)N([C@@H](C)CO)C[C@H](C)[C@H](CN(C)C(=O)NC2CCCCC2)OCCCC[C@H](C)O3)cc1`, the cytotoxicity call in assay [1] and in assay [2] was “inactive” throughout. Besides, the growth inhibition call in assay [3] is “inactive”.

Regarding `Cc1noc(C)c1NC(=O)N(C)C[C@@H]1Oc2ccc(NS(=O)(=O)c3cn(C)cn3)cc2C(=O)N([C@H](C)CO)C[C@H]1C`, the cytotoxicity call in assay [1] and in assay [2] was “inactive” throughout. Besides, in assay [3], the growth inhibition call is “inactive”.

Consider `COCCNC(=O)C[C@@H]1CC[C@H]2[C@H](COc3ccc(NC(=O)Nc4cccc(F)c4)cc3C(=O)N2C)O1`, for which the cytotoxicity call in assay [1] and in assay [2] was “inactive” throughout. In addition, the growth inhibition call in assay [3] is “inactive”.

Regarding `C[C@@H]1CN([C@H](C)CO)C(=O)c2cc(NC(=O)C3CC3)ccc2O[C@H]1CN(C)Cc1ccc(C(=O)O)cc1`, the cytotoxicity call in assay [1] and in assay [2] was “inactive” throughout. Further, the growth inhibition call in assay [3] is “inactive”.

Consider `CN(C)C(=O)C[C@@H]1CC[C@H]2[C@@H](COc3ccc(NS(=O)(=O)c4cccc(F)c4)cc3C(=O)N2C)O1`, for which the cytotoxicity call in assay [1] and in assay [2] was “inactive” in each case. In addition, the growth inhibition call in assay [3] was “inactive”.

With `Cc1noc(C)c1S(=O)(=O)Nc1ccc2c(c1)C(=O)N([C@H](C)CO)C[C@@H](C)[C@H](CN(C)C(=O)Nc1ccc(F)cc1)OCCCC[C@@H](C)O2`, the cytotoxicity call in assay [1] and in assay [2] was “inactive” each time. Besides, the growth inhibition call in assay [3] is “inactive”.

`Cc1ccc(S(=O)(=O)Nc2ccc3c(c2)CC(=O)N([C@H](C)CO)C[C@@H](C)[C@@H](CN(C)Cc2ccc(Cl)c(Cl)c2)O3)cc1`: the cytotoxicity call in assay [1] and in assay [2] was “active” throughout. Moreover, in assay [3], the growth inhibition call is “inactive”.

On to `C[C@@H]1CN([C@@H](C)CO)S(=O)(=O)c2ccc(C#CCN(C)C)cc2O[C@@H]1CN(C)Cc1ccccc1F`, for which the cytotoxicity call in assay [1] and in assay [2] was “inactive” throughout. The growth inhibition call in assay [3] was “inactive”.

`O=C(O)[C@@H]1C(=CCO)O[C@H]2CC(=O)N12`: the cytotoxicity call in assay [1] and in assay [2] was “inactive” in each case. The growth inhibition call in assay [3] is “inactive”.

In the case of `C[C@H]1CN([C@@H](C)CO)C(=O)c2cc(NC(=O)Nc3cccc4ccccc34)ccc2O[C@@H]1CN(C)CC1CCCCC1`, the cytotoxicity call in assay [1] and in assay [2] was “inactive” in each case. Further, the growth inhibition call in assay [3] was “inactive”.

Regarding `C[C@H](CO)N1C[C@H](C)[C@@H](CN(C)S(=O)(=O)c2cccs2)Oc2c(NC(=O)c3cnccn3)cccc2C1=O`, the cytotoxicity call in assay [1] and in assay [2] was “inactive” each time. In addition, the growth inhibition call in assay [3] was “inactive”.

Regarding `Cc1ccc(S(=O)(=O)Nc2ccc3c(c2)C(=O)N([C@@H](C)CO)C[C@H](C)[C@H](CN(C)Cc2ccc(C(F)(F)F)cc2)OCCCC[C@@H](C)O3)cc1`, the cytotoxicity call in assay [1] and in assay [2] was “inactive” in each case. In addition, in assay [3], the growth inhibition call is “inactive”.

Turning to `COc1ccc(NC(=O)Nc2ccc3c(c2)C(=O)N([C@H](C)CO)C[C@H](C)[C@@H](CN(C)C(=O)Nc2c(C)noc2C)OCCCC[C@H](C)O3)cc1`, the cytotoxicity call in assay [1] and in assay [2] was “inactive” throughout. The growth inhibition call in assay [3] is “inactive”.

For the molecule `CC(C)c1cc(C(C)C)c(CC(=O)NS(=O)(=O)Oc2c(C(C)C)cccc2C(C)C)c(C(C)C)c1`, the cytotoxicity call in assay [1] and in assay [2] was “active” each time. The growth inhibition call in assay [3] is “inactive”.

As for `Cn1nnnc1SCC1=C(C(=O)[O-])N2C(=O)C(NC(=O)C(OC=O)c3ccccc3)C2SC1.[Na+]` (configuration not stated), the cytotoxicity call in assay [1] and in assay [2] was “inactive” throughout. Also, the growth inhibition call in assay [3] was “active”.

For the molecule `COc1ccc(CN(C)C[C@@H]2OCCCC[C@@H](C)Oc3ccc(NS(=O)(=O)c4ccc(F)cc4)cc3C(=O)N([C@H](C)CO)C[C@H]2C)cc1`, the cytotoxicity call in assay [1] and in assay [2] was “inactive” throughout. The growth inhibition call in assay [3] was “inactive”.

For `Cc1ccc(S(=O)(=O)Nc2ccc3c(c2)C(=O)N([C@@H](C)CO)C[C@H](C)[C@@H](CN(C)C(=O)C2CCCCC2)OCCCC[C@@H](C)O3)cc1`, the cytotoxicity call in assay [1] is “inactive”. Further, in assay [2], the cytotoxicity call was “active”. Moreover, the growth inhibition call in assay [3] was “inactive”.

`C[C@H](CO)N1C[C@H](C)[C@@H](CN(C)C(=O)CCCN(C)C)OCc2cnnn2CCCC1=O`: the cytotoxicity call in assay [1] and in assay [2] was “inactive” in each case. In addition, the growth inhibition call in assay [3] is “inactive”.

Consider `C[C@H](CO)N1C[C@H](C)[C@H](CN(C)Cc2ccc(C(=O)O)cc2)Oc2ccc(NS(=O)(=O)c3cn(C)cn3)cc2C1=O`, for which the cytotoxicity call in assay [1] and in assay [2] was “inactive” in each case. Besides, the growth inhibition call in assay [3] is “inactive”.

`C[C@H](CO)N1C[C@H](C)[C@H](CN(C)Cc2ccc(O)cc2)OCc2ccccc2-c2c(n(C)c3ccccc23)C1=O`: the cytotoxicity call in assay [1] and in assay [2] was “inactive” each time. The growth inhibition call in assay [3] was “inactive”.

Consider `O=C1O[C@@H](c2ccccc2)[C@@H](c2ccccc2)N2[C@@H](c3ccc(OCCO)cc3)[C@]3(C(=O)Nc4ccc(C#CCCO)cc43)[C@@H](C(=O)N3CCCCCCC3)[C@H]12`, for which the cytotoxicity call in assay [1] and in assay [2] was “inactive” throughout. The growth inhibition call in assay [3] is “inactive”.

`C[C@@H]1CN([C@H](C)CO)C(=O)c2cccc(NC(=O)Nc3cccc4ccccc34)c2O[C@H]1CN(C)C(=O)Nc1ccccc1`: the cytotoxicity call in assay [1] and in assay [2] was “inactive” each time. In addition, the growth inhibition call in assay [3] is “inactive”.
